Experimental findings from PubChem BioAssay AID463173 (ICCB-Longwood Screening Facility, Harvard Medical School, 2010) are described below.

Out of some 52,000 compounds screened, about 4,300 (8.3%) were called active. Cut-off read from the data, not from the text of the source: active = survival mostly below about 52% (no sharp cut-off); inactive = mostly above about 56%. Some of the results follow.

The experiment concerns DeltatarO mutant. Description: growth inhibition of S. aureus wild type versus tarO mutant, primary screen, teichoic acid synthesis inhibitors, RN4220, OD600 (AID 463173). The following applies: OD600, 18 h, hits give low values, screened at 18.75 µg/mL (by protocol).
Consider `Cc1ccccc1-n1c(/C=C/c2c(C)n(C)c3ccccc23)nc2ccccc2c1=O`, for which the survival was inactive: 57%.

Turning to `CN(c1ccc(C(=O)NCC2CCCO2)cc1)S(C)(=O)=O` (stereo not given), the survival is inactive: 74%.

Consider `N#Cc1nc(/C=C/c2ccc(F)cc2)oc1N1CCN(c2ccccc2)CC1`, for which the survival was inactive: 73%.

For `CC(C)c1ccc(OCC(=O)Nc2c(Cl)ccc3nsnc23)cc1`, the survival was active: 41%.

As for `Cc1noc(Cn2c(=O)c3ccccc3n(CC(=O)Nc3cccc(Cl)c3C)c2=O)n1`, the survival is inactive: 75%.

`CC1CCN(c2nn3c(=O)c(C(=O)NCc4ccc(Cl)cc4)cnc3s2)CC1`: the survival is inactive: 73%.

As for `CCOc1ccccc1NC(=O)C1CCN(c2ncccn2)CC1`, the survival is inactive: 107%.

Take `CC(=O)N1CCCc2cc(S(=O)(=O)N(C)CC(=O)Nc3ccc(C)cc3C)ccc21`: the survival is inactive: 89%.

`COc1ccc(C2C(=O)N(C3CCC(C)CC3)CC(=O)N2Cc2ccccc2Cl)cc1OC` (stereo not given): the survival was inactive: 72%.

For `Cc1ccc(Sc2c(C)nn(C(=O)COc3ccc(F)cc3)c2C)cc1`, the survival is inactive: 92%.

For `O=C(NCCN1CCN(c2ccccc2)CC1)Nc1ccccc1Br`, the survival is inactive: 87%.

On to `Cc1cccc(-c2noc(-c3cccnc3NCc3ccco3)n2)c1`, for which the survival was active: 44%.

Consider `O=C(Nc1cccc(NC(=O)c2ccc(Br)o2)c1)c1ccccc1`, for which the survival is inactive: 55%.

For `COc1cccc(C2c3c(oc4ccc(C)cc4c3=O)C(=O)N2CCCN2CCOCC2)c1OC` (stereo not given), the survival was inactive: 135%.

In the case of `COc1ccc(-n2c(=O)c3c4c(sc3n(Cc3cc(C)ccc3C)c2=O)CN(C(C)=O)CC4)c(OC)c1`, the survival is inactive: 93%.

As for `Cc1ccccc1-n1cc(-c2ccccc2)nc1SCC(=O)Nc1ccc(F)cc1`, the survival is inactive: 94%.

With `CC(C)C(NC(=O)OCc1ccccc1)C(=O)N1CCOCCOCCOCC1` (stereo not given), the survival is inactive: 75%.

On to `CCCn1c2ccccc2c2cnn(CC(=O)N3CCC(C(=O)OCC)CC3)c(=O)c21`, for which the survival is inactive: 66%.

As to `COc1ccccc1NC(=O)N1CCNCC1`, the survival was inactive: 73%.

In the case of `O=C(c1ccc2c(c1)OCCO2)N(Cc1cccnc1)c1nc2c(F)cccc2s1`, the survival was inactive: 75%.

On to `Cc1cccc(-c2noc(CN(C(=O)c3ccccc3Cl)C(C)C)n2)c1`, for which the survival is inactive: 62%.

Turning to `Cn1c(C(=O)NCCc2ccccc2)cc2c(=O)n3ccccc3nc21`, the survival was active: 48%.

With `COc1ccc(CCNC(=O)CCCn2c(=O)c3ccccc3n(Cc3ccc(F)cc3Cl)c2=O)cc1OC`, the survival is inactive: 102%.

As for `Cc1ccc(N2CC(NC(=O)c3ccc(S(=O)(=O)N4CCOCC4)cc3)CC2=O)cc1C` (stereo not given), the survival is inactive: 118%.

As to `Cc1cc2oc(=O)c(CC(=O)O)c(C)c2c2occ(-c3ccc(F)cc3)c12`, the survival was inactive: 49%.

Consider `c1csc(C2=NC(c3ccncc3)=Nc3ccccc3N2)c1`, for which the survival was inactive: 93%.

With `Cc1ccc(-n2ncc(C(=O)NCCCN3CCN(c4cccc(Cl)c4)CC3)c2-n2cccc2)cc1`, the survival is inactive: 75%.

Turning to `O=C(CSC1=Nc2ccccc2N=C(c2ccc(F)cc2)C1)NCc1ccccc1`, the survival was inactive: 120%.

Regarding `CCOc1ccc(C(=O)NCCc2sc3nc(-c4ccc(Cl)cc4)nn3c2C)cc1OCC`, the survival is inactive: 89%.

On to `O=C(NCCc1ccc(Cl)cc1)c1ccc(Cn2c(=O)c3cccn3c3cccnc32)cc1`, for which the survival was active: 43%.

Regarding `CC1CCCN(Cc2cn3c(-c4cccc(Br)c4)nnc3s2)C1` (stereo not given), the survival was inactive: 75%.

As to `Cc1ccc(CNc2nc3ccccc3c3nc(-c4cccc(C)c4)nn23)cc1`, the survival was active: 18%.

Consider `CCCSc1oc(-c2cccs2)nc1S(=O)(=O)c1ccc(Cl)cc1`, for which the survival is inactive: 65%.

With `O=C(c1cnc(N2CCCCC2)c2ccccc12)N1CCN(c2ccccc2F)CC1`, the survival is inactive: 75%.

Turning to `Cc1ccc2c(c1)c1c(c(=O)n(Cc3ccccc3)c(=O)n1Cc1cccc(C(F)(F)F)c1)n2C`, the survival was inactive: 83%.

On to `CC(=O)Nc1ccc2c(c1)C(=O)N(c1ccccc1)C2=O`, for which the survival was inactive: 90%.

`COc1ccc(CNC(=O)CCc2c(C)nn(-c3ccc(N4CCCCC4)nn3)c2C)c(OC)c1`: the survival was active: 52%.

On to `CC(NC(=O)c1cccc(NC(=O)c2nsc3ccccc23)c1)c1ccccc1` (stereo not given), for which the survival was inactive: 115%.

`COc1ccc2c(c1)Cc1sc(NC(=O)c3cccc(F)c3)nc1-2`: the survival was inactive: 67%.

For `CCCC(=O)Nc1cc(-c2nc3cccnc3s2)ccc1C`, the survival is inactive: 109%.

On to `Cc1ccc(NC(=O)NCC2CCN(Cc3cccc(Cl)c3)CC2)cc1Cl`, for which the survival is active: -5%.

Regarding `COCc1cc(C)n(CC(N)=O)c(=O)c1C#N`, the survival was inactive: 88%.

As for `CCc1cccc(NC(c2nnc(-c3ccccc3)o2)c2ccc(F)cc2Cl)c1` (stereo not given), the survival is inactive: 83%.

Turning to `CCOC(=O)c1ccc(NC(=O)C2CC(=O)N(c3ccc(C(C)C)cc3)C2)cc1` (stereo not given), the survival is inactive: 83%.

For `CC(C)c1c(O)nc(SCCC(=O)O)[nH]c1=O`, the survival was inactive: 88%.

For `Cc1ccccc1OCC(=O)Nc1ccc2nc(SCCOc3ccccc3)sc2c1`, the survival was inactive: 99%.

With `Cc1ccc(C)c(Cn2c(SCC(=O)N(C)Cc3ccccc3)nc3ccccc32)c1`, the survival was inactive: 94%.

For the molecule `Cc1ccc(C)c(N2CCN(C(=O)CCCCCn3c(=O)[nH]c4ccccc4c3=O)CC2)c1`, the survival was inactive: 78%.

`CCOc1ccc(-c2cc(C(=O)N3CCN(c4cccc(C)c4)C(C)C3)c3ccccc3n2)cc1` (stereo not given): the survival was inactive: 89%.

`Cc1ccc(-c2nnc(Nc3ccc(S(N)(=O)=O)cc3)c3ccccc23)cc1S(=O)(=O)N1CCOCC1`: the survival was inactive: 61%.

Consider `CCc1ccccc1NC(=O)C(=O)NCC(c1cccnc1)N1CCc2ccccc21` (stereo not given), for which the survival was inactive: 58%.

For `CN(C)S(=O)(=O)c1ccc(NC(=O)Cn2c(-c3ccccc3)noc2=O)cc1`, the survival is inactive: 80%.

As for `CCOc1ccc(NC(=O)CSc2ncc3c(n2)-c2cc(Cl)ccc2N(C)S3(=O)=O)cc1`, the survival was active: 0%.

Take `Cc1ccc2cccc(NC(=O)C(C)Oc3ccc(C)c(C)c3)c2n1` (stereo not given): the survival was inactive: 56%.

For `CC1=C(C(=O)NCc2ccc(C)cc2)C2(CCCCC2)OC1=O`, the survival is inactive: 66%.

For the molecule `O=C(Nc1cc(Cl)ccc1Cl)C1(c2cccs2)CCOCC1`, the survival was inactive: 82%.

Turning to `Cc1noc(Cn2c(=O)c3ccccc3n(CC(=O)Nc3ccc(Cl)cc3)c2=O)n1`, the survival was inactive: 78%.

In the case of `Cc1cccc(NC(=O)CCNS(=O)(=O)c2cccc3nonc23)c1`, the survival is active: 44%.

With `CCOc1ccc(NS(=O)(=O)c2ccc3[nH]cc(C(=O)NC4CCCC4)c(=O)c3c2)cc1`, the survival was active: 39%.

On to `CCOc1ccc(C(=O)c2cn(Cc3ccc(OC)cc3)c3cc(OC)c(OC)cc3c2=O)cc1`, for which the survival was inactive: 88%.

As for `CCn1c(C(C)C)n[nH]c1=S`, the survival is inactive: 80%.

Regarding `COc1cccc(-n2c(-c3ccco3)nc3c(cnn3-c3ccc(C)cc3)c2=O)c1`, the survival is active: 52%.

Turning to `CCN1CCCC1CNC(=O)c1c(O)c2c([nH]c1=O)CCCC2` (stereo not given), the survival is inactive: 99%.

On to `O=C(Nc1ncc(Cc2ccc(Cl)cc2)s1)c1ccc2c(c1)CC(c1ccccc1)OC2=O` (stereo not given), for which the survival is inactive: 71%.

Regarding `CN1C(=O)C(O)N(c2ccc(Cl)c(Cl)c2)C1=O` (stereo not given), the survival was inactive: 108%.

With `COc1ccc(Nc2ncc(C(=O)Nc3cc(Cl)c(OC)cc3OC)c3ccccc23)cc1`, the survival is inactive: 72%.

Consider `Cc1ccc(C)c(C2C(C#N)=C(N)OC3=C2C(=O)CCC3)c1` (stereo not given), for which the survival is inactive: 68%.

With `CN(C)c1ccc(C(CNS(=O)(=O)c2ccc(F)cc2)N2CCCC2)cc1` (stereo not given), the survival was inactive: 106%.

With `O=C(CCS(=O)(=O)c1nc(-c2ccc3c(c2)OCO3)cc(C(F)(F)F)n1)Nc1ccc(F)c(Cl)c1`, the survival is active: 23%.

`COc1ccc(N2CCN(C(=O)c3ccc(Nc4nc5ccccc5n5nnnc45)cc3)CC2)cc1`: the survival was inactive: 80%.

Regarding `O=c1c2cc3c(cc2n(Cc2cccc(Cl)c2)c(=O)n1Cc1nc(-c2ccccc2)no1)OCO3`, the survival was inactive: 61%.

Consider `CCOc1ccccc1C(=O)Nc1ccccc1`, for which the survival is inactive: 65%.

`CC(=O)N1CCCc2cc(S(=O)(=O)N3CCCC(C(=O)Nc4cccc(F)c4)C3)ccc21` (stereo not given): the survival is inactive: 87%.

As to `COc1ccc(NC(=O)CCNS(=O)(=O)c2cccc3nonc23)c(OC)c1`, the survival was active: 50%.

In the case of `CCOc1ccccc1NC(=O)CSc1ncc(S(=O)(=O)c2ccc(C(C)(C)C)cc2)c(=O)[nH]1`, the survival is inactive: 58%.

For the molecule `O=C(CN(C(=O)Cn1nnc(-c2ccc(F)cc2)n1)c1ccccc1C(F)(F)F)NCc1ccco1`, the survival is inactive: 98%.

`CCCCNC(=O)CCn1c(=O)c2cccn2c2ccc(F)cc21`: the survival was active: 41%.

As to `CC1(C)Cc2ccccc2-c2nnc(-c3ccccc3)n21`, the survival was inactive: 98%.

With `O=C1CN=C(Nc2cccc(C(F)(F)F)c2)N1C1CCCC1`, the survival is inactive: 105%.

On to `COc1cccc(CNC(=O)CSc2nc3ccccc3nc2Cc2ccc(C)cc2)c1OC`, for which the survival was inactive: 74%.

Turning to `Cc1ccc(NC(=O)CCNS(=O)(=O)c2ccc3c(c2)CCN3C(=O)C2CC2)c(Cl)c1`, the survival was inactive: 83%.

With `CCCn1c2ccccc2c2cnn(CC(=O)NCCc3ccc(OCC)c(OCC)c3)c(=O)c21`, the survival was inactive: 92%.

`CCOC(=O)CNC(=O)c1cc2c(=O)n3cccc(C)c3nc2s1`: the survival was inactive: 179%.

As to `COc1cccc(C2CC(=O)Nc3c2c(=O)nc2c(C)cccn32)c1` (stereo not given), the survival was inactive: 70%.

In the case of `CCOCCCNC(=O)Cn1cc2c(n1)-c1c(oc(C(=O)N3CCCC3)c1C)CC2`, the survival was inactive: 77%.

`COc1c(Cl)cc(Cl)cc1/C=C(\C#N)c1nc(-c2ccc(Cl)cc2)cs1`: the survival was inactive: 122%.

Regarding `COc1ccc(-c2cc(-c3ccc4c(c3)NC(=O)CO4)nc3c2COc2ccc(C)cc2-3)cc1`, the survival is inactive: 86%.

On to `CCc1ccccc1NC(=O)c1cnn(-c2ccc(F)cc2)c1C1CCNCC1`, for which the survival is inactive: 80%.

Consider `Cc1c(NC(=O)C(F)(F)F)ccc2nc3c(=O)n(C)c(=O)n(C)c3nc12`, for which the survival was inactive: 79%.

Take `Cc1cccc(OCCOCCn2c(-c3ccc(Cl)cc3)nc3ccccc3c2=O)c1C`: the survival is inactive: 60%.
